# Experimental data reported in the supplement of paper PMC7826260.
# Some of the results follow. Cleavage of a single-stranded DNA pool by Rep nickase domains was read by sequencing (3 µM enzyme, 1 h, 37 °C); shown is the middle of each 90-letter strand. Values are log2 of uncut reads against the no-enzyme pool; uncut sequences lie near 0, cut ones below; no hit call is given. Because reads are shares of a total, they shift together; uncut strands gain when others are lost, and binding without cutting may add a little.
# Experiments:
# Test in all cases: uncleaved DNA left, log2 of reads against the no-enzyme library (log2 ratio); higher = less cleavage (more negative = more Rep cleavage of the k-mer); sequences stand for … in CTCGTCCG…ACCGGAGA
# [1] = test system: T1, Rep nickase domain of Muscovy duck circovirus
# T1 sequence (protein, residues 1-111, tag omitted): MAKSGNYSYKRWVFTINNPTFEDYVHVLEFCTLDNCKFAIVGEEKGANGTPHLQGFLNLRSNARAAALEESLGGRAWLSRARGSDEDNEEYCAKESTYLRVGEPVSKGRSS
# Experimental: (§1)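 A pool of 90-nt single-stranded DNAs with seven random bases just before the constant AC of the nick site (name = the seven bases) was cut by 3 µM recombinant His6-SUMO-tagged Rep nickase domain (300 nM DNA, 50 mM HEPES pH 8.0, 50 mM NaCl, 1 mM MnCl2, 1 h, 37 °C, three replicates). Uncut DNA was amplified and sequenced.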
# [2] = test system: T2, Rep nickase domain of banana bunchy top virus
# T2 sequence (protein, residues 1-94, tag omitted): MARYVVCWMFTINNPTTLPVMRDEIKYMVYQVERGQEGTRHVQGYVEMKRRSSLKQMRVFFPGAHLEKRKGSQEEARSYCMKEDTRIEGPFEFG
# Experimental: as §1
# [3] = test system: T3, Rep nickase domain of cabbage leaf curl virus
# T3 sequence (protein, residues 1-116, tag omitted): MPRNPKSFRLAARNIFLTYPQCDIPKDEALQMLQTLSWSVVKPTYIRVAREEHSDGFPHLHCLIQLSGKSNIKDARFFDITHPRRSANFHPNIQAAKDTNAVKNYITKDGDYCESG
# Experimental: as §1
# [4] = test system: T4, Rep nickase domain of chickpea chlorotic dwarf virus
# T4 sequence (protein, residues 1-124, tag omitted): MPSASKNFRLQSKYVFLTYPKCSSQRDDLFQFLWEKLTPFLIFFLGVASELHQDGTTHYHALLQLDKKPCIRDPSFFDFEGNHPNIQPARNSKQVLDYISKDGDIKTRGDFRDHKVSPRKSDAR
# Experimental: as §1
# [5] = test system: T5, Rep nickase domain of faba bean necrotic yellows virus
# T5 sequence (protein, residues 1-98, tag omitted): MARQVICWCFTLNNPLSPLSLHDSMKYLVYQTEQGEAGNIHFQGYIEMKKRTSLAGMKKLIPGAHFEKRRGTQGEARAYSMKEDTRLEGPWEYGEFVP
# Experimental: as §1
# [6] = test system: T6, Rep nickase domain of maize striate mosaic virus
# T6 sequence (protein, residues 1-117, tag omitted): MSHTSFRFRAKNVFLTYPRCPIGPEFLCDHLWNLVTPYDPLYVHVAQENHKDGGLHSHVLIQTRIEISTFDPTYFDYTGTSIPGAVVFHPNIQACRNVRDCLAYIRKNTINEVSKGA
# Experimental: as §1
# [7] = test system: T7, Rep nickase domain of porcine circovirus 2
# T7 sequence (protein, residues 2-116, tag omitted): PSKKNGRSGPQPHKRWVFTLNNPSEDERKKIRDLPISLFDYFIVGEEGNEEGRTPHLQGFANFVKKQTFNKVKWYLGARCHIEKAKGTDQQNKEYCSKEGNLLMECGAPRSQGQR
# Experimental: as §1
# [8] = test system: T8, Rep nickase domain of tomato golden mosaic virus
# T8 sequence (protein, residues 1-124, tag omitted): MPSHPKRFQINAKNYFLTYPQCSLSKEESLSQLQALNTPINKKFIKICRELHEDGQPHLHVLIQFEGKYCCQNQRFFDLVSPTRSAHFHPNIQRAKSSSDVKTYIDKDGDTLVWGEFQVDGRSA
# Experimental: as §1
# [9] = test system: T9, Rep nickase domain of tomato yellow leaf curl virus
# T9 sequence (protein, residues 1-136, tag omitted): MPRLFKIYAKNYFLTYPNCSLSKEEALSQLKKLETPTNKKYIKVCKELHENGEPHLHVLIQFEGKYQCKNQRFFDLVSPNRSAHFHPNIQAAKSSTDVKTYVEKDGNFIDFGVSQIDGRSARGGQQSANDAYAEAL
# Experimental: as §1
# [10] = test system: T10, Rep nickase domain of wheat dwarf virus
# T10 sequence (protein, residues 1-137, tag omitted): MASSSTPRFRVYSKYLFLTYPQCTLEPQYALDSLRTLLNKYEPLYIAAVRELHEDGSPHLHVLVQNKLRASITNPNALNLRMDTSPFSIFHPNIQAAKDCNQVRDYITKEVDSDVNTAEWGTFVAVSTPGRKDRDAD
# Experimental: as §1
Sequence,uncleaved DNA left (log2) [1],uncleaved DNA left (log2) [2],uncleaved DNA left (log2) [3],uncleaved DNA left (log2) [4],uncleaved DNA left (log2) [5],uncleaved DNA left (log2) [6],uncleaved DNA left (log2) [7],uncleaved DNA left (log2) [8],uncleaved DNA left (log2) [9],uncleaved DNA left (log2) [10]
CTTTCCA,-0.0808,0.0174,-0.00171,-1.33,-0.112,-0.494,-0.256,-0.146,0.0342,0.0651
GAGCGTG,0.06,0.163,-0.0344,0.634,0.195,1.34,0.211,0.0958,0.119,0.133
ACTAATC,0.0712,-0.0187,-0.0703,-0.11,0.0591,-0.711,0.194,0.0952,-0.0514,0.0835
TGCCGTA,-0.0618,-0.169,-0.0362,-0.728,-0.0442,-0.824,-0.157,-0.22,-0.0137,-0.173
CCGTACA,0.0882,0.065,0.0344,-1.27,0.166,-0.184,-0.106,-0.0295,0.0236,0.00947
TTAGACG,0.0902,-0.0566,-0.515,-0.715,0.105,-0.963,0.11,-0.0304,0.0834,-0.0163
TCACTAA,0.0453,-0.0773,0.0221,-0.274,0.0739,-0.372,0.0506,0.0698,-0.0428,-0.0422
ACGACAA,-0.0488,-0.038,-0.0214,0.343,0.104,0.168,0.0541,-0.104,-0.0263,0.0976
CGTGACT,-0.00771,0.0209,0.186,0.492,0.064,1.5,-0.117,-0.0335,0.103,0.117
TAAACAT,-0.0611,0.0681,-3.22,-2.76,-0.133,0.0863,-0.104,-0.753,0.0282,-1.91
ACCTCGG,-0.0545,-0.00781,-0.0518,0.297,0.0653,-0.499,0.0907,0.0858,-0.107,-0.0526
ATTGCAC,0.0962,-0.0305,-0.645,-0.482,0.0382,-1.19,0.0554,0.022,-0.0447,-0.103
AGACACA,-0.094,0.123,0.432,1,0.0425,1.95,0.0386,-0.082,0.0107,0.068
TGATTCG,0.0252,-0.0527,-0.849,0.163,-0.0456,-0.886,0.0917,-0.104,-0.0755,-0.159
CAGGCCT,0.0497,-0.052,-0.098,-1.25,-0.00724,0.277,-1.66,0.0318,-0.0376,-0.0491
TGCCAGC,0.0109,0.0325,0.125,-0.0102,-0.00943,-0.354,0.0427,-0.0487,-0.0514,0.0833

Sequence,uncleaved DNA left (log2) [1],uncleaved DNA left (log2) [2],uncleaved DNA left (log2) [3],uncleaved DNA left (log2) [4],uncleaved DNA left (log2) [5],uncleaved DNA left (log2) [6],uncleaved DNA left (log2) [7],uncleaved DNA left (log2) [8],uncleaved DNA left (log2) [9],uncleaved DNA left (log2) [10]
CAAACAT,0.0617,0.196,-0.286,-1.51,0.121,0.199,0.0254,-0.000721,0.112,0.0767
CGGATGG,-0.0661,-0.118,-0.0789,0.233,-0.047,-0.0919,0.0289,-0.192,-0.13,-0.0422
AGGTCCG,0.0354,0.0653,-0.708,-0.223,0.0429,-0.852,0.186,0.0437,-0.0632,-0.0191
ATTGGAA,0.00496,-0.0316,0.193,1.01,-0.0209,1.01,-0.000531,-0.0303,-0.162,-0.0589
AGCCGTC,0.0856,0.0218,0.179,0.354,0.0423,0.0662,0.0948,0.0292,0.0372,0.0162
TCTTGTA,-0.0917,-0.0241,-0.1,-1.09,-0.0494,-1,-0.507,0.0339,-0.00709,-0.179
AGAGCAA,0.145,0.0836,0.152,0.384,0.00697,0.193,-0.71,-0.0552,0.0453,0.148
ACGTGGC,-0.0245,-0.118,-0.513,-0.589,0.0233,-1.26,0.0663,-0.0158,-0.0605,-0.171
TTACTAA,0.074,-0.0486,0.0365,-1.42,0.0834,-0.0887,-0.0303,-0.0733,0.0596,0.0262
GATCCCC,0.138,0.221,0.396,0.792,0.148,0.946,-0.434,0.0851,0.337,0.339
CTTCTAC,-0.42,-0.251,-0.443,-2.4,-0.0624,-0.76,-0.633,-0.109,-0.126,-0.237
ACCGAGA,0.107,0.211,0.918,2.01,0.17,1.31,0.176,0.169,0.0216,0.241
CATGAAC,0.0475,0.0709,0.0186,-0.232,0.0688,-0.759,0.133,0.00951,0.0266,-0.00721
ATAGCGG,-0.0087,0.0207,-0.197,0.135,0.0498,-0.455,0.19,0.0111,-0.0672,-0.0314
ACGTCGG,0.0218,-0.155,-0.288,-0.0866,-0.0502,-0.449,0.121,0.0737,-0.264,-0.167
